Structures are written as SMILES. About 540 (0.36%) of roughly 150,000 compounds showed an effect of 50% or more. The list shows a part of the results.

The experiment concerns Plasmodium falciparum. Briefly: Primary screen in NF54 nanoGlo assay, in single point, at 2uM, 72h; a lower Z score goes with more inhibition. Particulars: timepoint 72 hour. It counts as functional, Erythrocyte.
The term % Inhibition denotes the drop in the measured response relative to a control, in per cent. Take `CN(CC(=O)Nc1nsc2ccccc12)S(C)(=O)=O`: the “% Inhibition” value is recorded as -10% and the Z score amounted to 1.57.

`Cc1nc2ccc(S(=O)(=O)Nc3ccc(Cl)cc3)cc2nc1C`: the “% Inhibition” value is recorded as -5% and the Z score came to 0.68.

On to `Cc1cccc(N(C)S(=O)(=O)c2c(-c3ccccc3)csc2C(=O)Nc2ccc(F)c(F)c2)c1`, for which the “% Inhibition” value is on record as -5% and the Z score came to 0.7.

In the case of `O=C(Cc1csc(-c2ccccc2)n1)N1CCOC[C@@H](CO)C1`, the “% Inhibition” value was -5% and the Z score is 0.95.

Consider `CCn1ccnc1CN1CCC[C@H](CCC(=O)N(C)C2CCN(C)CC2)C1`, for which the “% Inhibition” value was -2% and the Z score was determined as 0.26.

With `O=C(CN1CCN(Cc2ccccc2)CC1)Nc1ccc2c(c1)CCNC2=O`, the “% Inhibition” value was -11% and the Z score came out at 1.83.

For `CC(C)Cn1cc(NCc2ccncc2)cn1`, the “% Inhibition” value is 2% and the Z score is recorded as -0.19.

Take `FC(F)(F)c1cc(N2CCc3cncnc3C2)nc(-c2ccncc2)n1`: the “% Inhibition” value came to 3% and the Z score is recorded as -0.31.

With `CCNC(=O)N1CCC2(CC1)N[C@@H](Cc1ccccc1)C(=O)N2Cc1ccc(F)cc1`, the “% Inhibition” value is recorded as -10% and the Z score is on record as 0.94.

Consider `CCN(CC)C(=O)c1ccc(Cl)c(NC(=O)[C@@H]2C=CCN2)c1`, for which the “% Inhibition” value is reported as -2% and the Z score is listed as 0.25.

Consider `O=C(CCc1cc(O)no1)N1CCC[C@H](Cc2nc3ccccc3[nH]2)C1`, for which the “% Inhibition” value is -22% and the Z score amounted to 2.54.

With `COc1ccc(CC(=O)Nc2cc(C(C)(C)C)nn2[C@H]2CCS(=O)(=O)C2)cc1`, the “% Inhibition” value is listed as -15% and the Z score stood at 2.87.

As for `CCN(C(=O)C1C(C=C(C)C)C1(C)C)C1CCS(=O)(=O)C1` (centres undefined), the “% Inhibition” value was -16% and the Z score stood at 1.31.

For the compound `CNC(=O)N1CC[C@H](Cc2noc(-c3ccncc3)n2)C1`, the “% Inhibition” value was -7% and the Z score is 0.86.

On to `Cc1ccc2nc(C(=O)N3CCC[C@H](N4CCCC4=O)CC3)ccc2c1`, for which the “% Inhibition” value is listed as 8% and the Z score is -1.15.

As to `Cc1ccc([C@H]2Nc3ccccc3C(=O)N2c2ccc3c(c2)OCO3)s1`, the “% Inhibition” value is reported as -5% and the Z score was 0.93.

Regarding `Cc1cc(-c2ccc(C(=O)N3CCNC[C@@H]3C)cc2)cnc1-n1cnnc1`, the “% Inhibition” value is on record as -9% and the Z score is on record as 1.77.

`Cc1ccc(-n2nc(C(=O)NC3CC3)cc2C)cc1`: the “% Inhibition” value is listed as 0% and the Z score is listed as -0.01.

For `COc1cc(-c2cc(N)n(S(=O)(=O)c3cccc4nsnc34)n2)cc(OC)c1OC`, the “% Inhibition” value is -1% and the Z score was found to be 0.22.

Consider `CN(CC1(c2ccccc2)CC1)C(=O)c1cc(C(=O)O)ccn1`, for which the “% Inhibition” value was found to be 10% and the Z score is -0.99.

As to `N#CCCN(C(=O)c1cccc(OC(F)F)c1)C1CCOCC1`, the “% Inhibition” value is given as -7% and the Z score was found to be 0.76.

As for `Cc1nnnn1Cc1nc(C(F)(F)F)cs1`, the “% Inhibition” value is reported as 27% and the Z score is -3.09.

As to `CCOC(=O)C(C)(C)c1csc(CN2C(=O)CCC2=O)n1`, the “% Inhibition” value is listed as -4% and the Z score is 0.69.

For `C[C@@H](CNC(=O)N(C)Cc1cscn1)Oc1ccc(Cl)cc1`, the “% Inhibition” value was -4% and the Z score worked out at 0.47.

With `COc1cc(CNc2ccc(Oc3ccccc3)cc2)cc(Cl)c1OCc1ccccc1Cl`, the “% Inhibition” value was 35% and the Z score is given as -3.97.

Turning to `CN1N=C(C(=O)NOCc2ccccc2)CCC1=O`, the “% Inhibition” value is given as -3% and the Z score amounted to 0.43.

In the case of `CC(=O)N(C)c1ccccc1NC(=O)NCCc1c(F)cccc1F`, the “% Inhibition” value was -9% and the Z score was 1.7.

For `N#CCC(=O)Nc1nc(-c2ccc(Oc3ccccc3)cc2)cs1`, the “% Inhibition” value was 30% and the Z score is on record as -4.06.

Consider `Nc1cc(Cl)cc(Cl)c1C(=O)O`, for which the “% Inhibition” value was 9% and the Z score is recorded as -1.01.

As to `Cc1nc([C@H]2CCCNC2)n(-c2cccc(C)c2C)n1`, the “% Inhibition” value is listed as -15% and the Z score was 2.51.

For `CCOc1cc2c(cc1OCC)[C@H](c1cc3ccccc3s1)NCC2`, the “% Inhibition” value is reported as 34% and the Z score was -3.83.

As to `O=C(CN1CCOC1=O)N1CCC[C@H](Oc2ncc(F)cn2)C1`, the “% Inhibition” value is listed as -4% and the Z score worked out at 0.77.

For `Cc1nonc1CN[C@@H](C)CN1CCOCC1`, the “% Inhibition” value is reported as -15% and the Z score came out at 2.15.

Take `Cc1ccc(NC(=O)CC(=O)N2CCCCCCCC2)c(C)c1`: the “% Inhibition” value is listed as -7% and the Z score is listed as 1.33.

For the compound `CCN(Cc1ccc2occc2c1)[C@H]1CCOC(C)(C)C1`, the “% Inhibition” value is given as -12% and the Z score is listed as 2.48.

Consider `CC(C)(F)C(=O)N1CCN(c2cncc3ccccc23)CC1`, for which the “% Inhibition” value is on record as -16% and the Z score came to 1.63.

Consider `COC(=O)[C@]1(NCc2ccn(C)n2)CCCN(Cc2ccccc2)C1`, for which the “% Inhibition” value was -11% and the Z score is given as 0.93.

As for `CC(C)c1nccc(-c2c(-c3ccccc3)ncn2C[C@H]2CCCO2)n1`, the “% Inhibition” value was -16% and the Z score is given as 2.22.

Consider `CN(CCO)C(=O)Nc1cc(Cl)cc(Cl)c1`, for which the “% Inhibition” value was 4% and the Z score is recorded as -0.53.

Consider `CCn1c(C)nnc1CN[C@@H](C)c1cc(C)oc1C`, for which the “% Inhibition” value is reported as -11% and the Z score is on record as 1.02.

Turning to `Cc1ccc(NC(=O)c2ccccc2-c2nc3ccccc3s2)cc1`, the “% Inhibition” value is given as -11% and the Z score is 1.33.

For the compound `CC1CCCC(C)C1NC(=O)CCc1nc2c([nH]1)c(=O)[nH]c(=O)n2C` (centres undefined), the “% Inhibition” value is 32% and the Z score was -3.64.
